# Laboratory results reported in the supplement of paper PMC8728848.
# The list shows a part of the results.
# B1: Gal-9-hFc (Mus musculus), O08573-2 (protein)
# chain: MALFSAQSPYINPIIPFTGPIQGGLQEGLQVTLQGTTKSFAQRFVVNFQNSFNGNDIAFHFNPRFEEGGYVVCNTKQNGQWGPEERKMQMPFQKGMPFELCFLVQRSEFKVMVNKKFFVQYQHRVPYHLVDTIAVSGCLKLSFITFQTQNFRPAHQAPMAQTTIHMVHSTPGQMFSTPGIPPVVYPTPAYTIPFYTPIPNGLYPSKSIMISGNVLPDATRFHINLRCGGDIAFHLNPRFNENAVVRNTQINNSWGQEERSLLGRMPFSRGQSFSVWIICEGHCFKVAVNGQHMCEYYHRLKNLQDINTLEVAGDIQLTHVQT
# Legend:
# Assay in all cases: glycan array binding signal (z-score within array); higher = stronger binding
# Conditions in all cases: glycan notation: IUPAC condensed, linker removed
# [1] = target: Gal(b1-4)GlcNAc(b1-3)Gal(b1-4)GlcNAc(b1-3)[Gal(b1-4)GlcNAc(b1-3)Gal(b1-4)GlcNAc(b1-6)]GalNAc
# Method in brief: (§1)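 The Consortium for Functional Glycomics database supplied 3228 glycan arrays, of which those lacking an available protein sequence were dropped. The binding signal, a within-array Z-score, was averaged across arrays of the same protein sequence and across linkers. Negative scores can be read as non-binding.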
# [2] = target: Gal(b1-4)GlcNAc(b1-3)Gal(b1-4)GlcNAc(b1-6)[Gal(b1-3)]GalNAc
# Method in brief: as §1
# [3] = target: Gal(b1-4)GlcNAc(b1-3)Gal(b1-4)[Fuc(a1-3)]GlcNAc(b1-3)Gal(b1-4)[Fuc(a1-3)]GlcNAc
# Method in brief: as §1
# [4] = target: Gal(b1-4)GlcNAc(b1-3)GalNAc
# Method in brief: as §1
# [5] = target: Gal(b1-4)GlcNAc(b1-3)[Fuc(a1-3)GlcNAc(b1-6)]Gal(b1-4)Glc
# Method in brief: as §1
# [6] = target: Gal(b1-4)GlcNAc(b1-3)[Gal(b1-4)GlcNAc(b1-6)]Gal(b1-4)GlcNAc
# Method in brief: as §1
# [7] = target: Gal(b1-4)GlcNAc(b1-3)[GlcNAc(b1-6)]Gal(b1-4)GlcNAc
# Method in brief: as §1
# [8] = target: Gal(b1-4)GlcNAc(b1-6)Gal(b1-4)GlcNAc
# Method in brief: as §1
# [9] = target: Gal(b1-4)GlcNAc(b1-6)GalNAc
# Method in brief: as §1
# [10] = target: Gal(b1-4)GlcNAc(b1-6)[Gal(b1-3)]GalNAc
# Method in brief: as §1
# [11] = target: Gal(b1-4)GlcNAc(b1-6)[Gal(b1-4)GlcNAc(b1-3)]GalNAc
# Method in brief: as §1
# Gal(b1-4)GlcNAc6P = target: Gal(b1-4)GlcNAc6P
# Method in brief: as §1
# Gal(b1-6)Gal = target: Gal(b1-6)Gal
# Method in brief: as §1
# Gal3S(b1-3)GalNAc = target: Gal3S(b1-3)GalNAc
# Method in brief: as §1
# Gal3S(b1-3)GlcNAc = target: Gal3S(b1-3)GlcNAc
# Method in brief: as §1
# [12] = target: Gal3S(b1-3)[Fuc(a1-4)]GlcNAc
# Method in brief: as §1
# Gal3S(b1-4)Glc = target: Gal3S(b1-4)Glc
# Method in brief: as §1
# Gal3S(b1-4)Glc6S = target: Gal3S(b1-4)Glc6S
# Method in brief: as §1
# Gal3S(b1-4)GlcNAc = target: Gal3S(b1-4)GlcNAc
# Method in brief: as §1
# [13] = target: Gal3S(b1-4)[Fuc(a1-3)]Glc6S
# Method in brief: as §1
# [14] = target: Gal3S(b1-4)[Fuc(a1-3)]GlcNAc
# Method in brief: as §1
# [15] = target: Gal3S(b1-4)[Fuc(a1-3)]GlcNAc6S
# Method in brief: as §1
# Gal3S4S(b1-4)GlcNAc = target: Gal3S4S(b1-4)GlcNAc
# Method in brief: as §1
# Gal3S6S(b1-4)GlcNAc = target: Gal3S6S(b1-4)GlcNAc
# Method in brief: as §1
# Gal3S6S(b1-4)GlcNAc6S = target: Gal3S6S(b1-4)GlcNAc6S
# Method in brief: as §1
# Gal4S(b1-4)GlcNAc = target: Gal4S(b1-4)GlcNAc
# Method in brief: as §1
# Gal4S6S(b1-4)GlcNAc = target: Gal4S6S(b1-4)GlcNAc
# Method in brief: as §1
# Gal6P(b1-4)GlcNAc = target: Gal6P(b1-4)GlcNAc
# Method in brief: as §1
# Gal6S(b1-3)GlcNAc = target: Gal6S(b1-3)GlcNAc
# Method in brief: as §1
# Gal6S(b1-3)GlcNAc6S = target: Gal6S(b1-3)GlcNAc6S
# Method in brief: as §1
# Gal6S(b1-4)Glc = target: Gal6S(b1-4)Glc
# Method in brief: as §1
# Gal6S(b1-4)Glc6S = target: Gal6S(b1-4)Glc6S
# Method in brief: as §1
# Gal6S(b1-4)GlcNAc = target: Gal6S(b1-4)GlcNAc
# Method in brief: as §1
# Gal6S(b1-4)GlcNAc6S = target: Gal6S(b1-4)GlcNAc6S
# Method in brief: as §1
# GalNAc(a1-3)Gal = target: GalNAc(a1-3)Gal
# Method in brief: as §1
# GalNAc(a1-3)GalNAc = target: GalNAc(a1-3)GalNAc
# Method in brief: as §1
# [16] = target: GalNAc(a1-3)GalNAc(b1-3)Gal(a1-4)Gal(b1-4)Glc
# Method in brief: as §1
binder,measurement,setting,value
B1,glycan array binding signal (z-score),[1],0.807
same,glycan array binding signal (z-score),[2],0.343
same,glycan array binding signal (z-score),[3],-0.386
same,glycan array binding signal (z-score),[4],-0.461
same,glycan array binding signal (z-score),[5],-0.336
same,glycan array binding signal (z-score),[6],-0.337
same,glycan array binding signal (z-score),[7],2.07
same,glycan array binding signal (z-score),[8],-0.356
same,glycan array binding signal (z-score),[9],-0.082
same,glycan array binding signal (z-score),[10],0.33
same,glycan array binding signal (z-score),[11],-0.339
same,glycan array binding signal (z-score),Gal(b1-4)GlcNAc6P,0.047
same,glycan array binding signal (z-score),Gal(b1-6)Gal,0.505
same,glycan array binding signal (z-score),Gal3S(b1-3)GalNAc,1.45
same,glycan array binding signal (z-score),Gal3S(b1-3)GlcNAc,1.26
same,glycan array binding signal (z-score),[12],0.257
same,glycan array binding signal (z-score),Gal3S(b1-4)Glc,1.42
same,glycan array binding signal (z-score),Gal3S(b1-4)Glc6S,4.35
same,glycan array binding signal (z-score),Gal3S(b1-4)GlcNAc,0.61
same,glycan array binding signal (z-score),[13],0.428
same,glycan array binding signal (z-score),[14],-0.299
same,glycan array binding signal (z-score),[15],3.57
same,glycan array binding signal (z-score),Gal3S4S(b1-4)GlcNAc,-0.2
same,glycan array binding signal (z-score),Gal3S6S(b1-4)GlcNAc,-0.138
same,glycan array binding signal (z-score),Gal3S6S(b1-4)GlcNAc6S,1.57
same,glycan array binding signal (z-score),Gal4S(b1-4)GlcNAc,-0.51
same,glycan array binding signal (z-score),Gal4S6S(b1-4)GlcNAc,-0.278
same,glycan array binding signal (z-score),Gal6P(b1-4)GlcNAc,-0.364
same,glycan array binding signal (z-score),Gal6S(b1-3)GlcNAc,-0.289
same,glycan array binding signal (z-score),Gal6S(b1-3)GlcNAc6S,-0.365
same,glycan array binding signal (z-score),Gal6S(b1-4)Glc,0.187
same,glycan array binding signal (z-score),Gal6S(b1-4)Glc6S,0.568
same,glycan array binding signal (z-score),Gal6S(b1-4)GlcNAc,-0.293
same,glycan array binding signal (z-score),Gal6S(b1-4)GlcNAc6S,0.342
same,glycan array binding signal (z-score),GalNAc(a1-3)Gal,-0.203
same,glycan array binding signal (z-score),GalNAc(a1-3)GalNAc,-0.382
same,glycan array binding signal (z-score),[16],-0.404
